In PMC6212790:
The other results are listed elsewhere or left out. At the low end of the ranking the order means little.

These sequences were tested against T1, GST-Rok-C97-191 (UniProt O34857) (assay: protein binding microarray). Conditions: Rok is a gene silencer of Bacillus subtilis; high values mean tight binding; most listed sequences are background and not binding sites; double strand, one strand shown.
T1 sequence: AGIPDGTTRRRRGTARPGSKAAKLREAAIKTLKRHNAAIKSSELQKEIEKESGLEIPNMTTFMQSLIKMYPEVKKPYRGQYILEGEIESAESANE
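Further: rank score from −0.5 (least bound) to 0.5 (best bound).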

Sequence | binding signal [E-score]
ACTTCTAA | 0.113
TTGTAAAA | 0.265
CAACATGG | -0.106
AAAAATAG | 0.2
ACCCGGGT | -0.287
CTAAGCAA | 0.105
GTATAGCA | 0.145
ATATTTAC | 0.375
ACACGAGT | -0.105
CGCGCCGA | -0.121
GAATAGCC | -0.126
GCCAGTCC | -0.159
CTTCGGGC | -0.0805
AACATCAA | 0.0372
AGACTACA | 0.0455
TCCTGCAA | -0.114
GCGCGAAA | 0.0801
CCTCACTA | 0.0289
CCCAACCC | -0.149
TGGCGGAA | -0.262
CAGGTGAC | -0.0368
AAAAGATT | 0.219
AGGTAACC | -0.0558
ATTCAGGG | -0.18
AGACCACT | -0.0232

Sequence | binding signal [E-score]
AAAATAGA | 0.271
TCCGGTCA | -0.0339
AGACGAGC | -0.285
TCTGAGCA | -0.245
ACCTTTTG | 0.221
TAACGAGA | 0.0117
GAATCTGC | 0.0609
CTACTAAG | 0.261
CCCCAGCA | -0.234
CAACTAGG | 0.156
CCACTTAC | 0.102
ACGGATGG | -0.179
CGAGTACA | 0.00587
ACTTCTCA | 0.153
CTCCAAAA | -0.0105
TCCTGAAA | -0.138
AACCGTCA | -0.152
CCCGACGG | -0.0646
GATTGACA | -0.0762
ATTTGATA | 0.185
CCCAGACA | -0.285
AGGTAATA | 0.328
AAGCAAAC | 0.141
TACGATAA | 0.259
AGGATGCG | -0.123

Sequence | binding signal [E-score]
ACTCTGCA | -0.192
GTTCGGGA | -0.0165
CGGGCTGA | -0.0375
GTCTTCAC | -0.002
AAACACCA | 0.00755
CGGTCTCC | -0.172
ACGTTTGA | -0.0847
GGCGGAAC | -0.23
AGGGGCAG | -0.203
CCGGATAC | -0.122
AACCCACC | -0.282
ACCGCCGC | -0.0671
AGCTGATC | 0.0488
TGAGGGCA | -0.329
CGTGTCAA | -0.26
CGTTTGTC | -0.0237
TGCCTACA | 0.00909
GATGTGGA | -0.0761
AGCTCTAC | -0.0441
ACAATTTC | 0.116
CCGTCTCA | -0.181
ACGTAAGC | -0.115
ACAGCCGG | -0.361
ACTGCCAT | -0.216
CAATAAAA | 0.239

Sequence | binding signal [E-score]
GGCCAGCC | -0.353
ATATCGCG | 0.227
ACTGGCGC | -0.135
CTTAGCTA | 0.178
CACGCACC | -0.101
AATTAAAA | 0.259
ATTATGGG | 0.0918
ATTTGCTA | 0.17
CACATCAC | -0.0514
GCATGTTA | 0.0297
AGCGTTAT | 0.00996
CGGTACAC | 0.0478
TGCCTCAA | -0.08
GCGTAGCA | -0.222
CCACATGA | 0.0378
GCCGTATA | -0.103
TTGTACAA | 0.342
GCGAAGGA | -0.246
CGCATAAG | -0.00117
CCTTTGAG | -0.221
CATCTAAA | 0.111
GTGCCACA | -0.242
CGTTAGTC | 0.108
CTAAAAAC | 0.0687
CGTTACGC | -0.0756

Sequence | binding signal [E-score]
GTTCAAAC | -0.183
GACGGTAA | 0.0966
TAATGTAA | 0.357
ATAAGGCA | 0.0952
AGTAGACG | -0.0652
AAAGCACA | -0.0242
AGTTAAAG | -0.015
GTTAAACA | 0.0896
AGTTACAA | 0.163
CAGCGCCG | -0.341
ATACCGTG | 0.206
ATTGCGAA | 0.178
CTTCTCCC | -0.124
AATGGTTG | -0.113
TCCCTCCA | -0.323
ACGATAGT | 0.235
CCGATCGG | -0.181
CAATAACC | 0.00883
CGAAGCGA | -0.0591
ACAATTCA | -0.0909
ACTCACTA | 0.134
AGTGTTTA | -0.00335
GCAAAGGA | -0.136
ATATGTTC | 0.238
GAGGTGGC | -0.214

Sequence | binding signal [E-score]
CAAGCCAC | -0.255
GTTCCAAC | -0.0996
CAGTGGAC | -0.144
GTTCACGA | -0.05
CCCGGTCA | -0.121
AGTAAGCG | 0.054
GAATATGA | 0.126
CTCACCCA | -0.0563
CGTTCTGC | -0.202
AACGGATC | -0.0204
ATCGTCAA | 0.0641
GACCGGGC | -0.375
TACGCAGA | -0.138
GGAATACC | 0.106
GGACCTAC | 0.0794
CCTATACA | 0.159
CATCTCGG | -0.0491
GCCCAGAA | -0.221
CAACGACG | -0.122
CGCGTAAC | 0.167
AAGTAGAC | 0.021
CCAGACCA | -0.253
ATGGCGAG | -0.164
AATACATG | 0.2
AAGATGGA | -0.195

Sequence | binding signal [E-score]
GTTCTCCA | -0.0391
CGTCACAC | -0.165
ATGCATAA | 0.165
CTTGCAAA | -0.06
CAAACCGG | 0.137
CAGACTCC | -0.0644
CCCACTCA | -0.0258
CTGGTCAA | 0.00605
AGATTCTC | 0.00255
CGGATACA | 0.059
AGCGGAAC | -0.102
ATGGCCCA | -0.0422
CAAAATTC | 0.0531
CCCGAGCG | -0.271
CGCTACAC | -0.0491
CGAAACGC | -0.312
GCTCCACC | -0.192
CAGCCTCG | -0.271
ACATTGTA | 0.241
CTAAAGAA | 0.0845
CGAGCACA | 0.0472
GGGCGCAA | -0.203
ACACACGT | 0.0415
ATTAACTA | 0.367
GAGTATAA | 0.0557

Sequence | binding signal [E-score]
CCGGTGCA | -0.239
AGTCACCC | -0.348
GGGTTATA | -0.0341
GCTCAAGA | -0.113
GGAGTCAA | -0.113
AGCATCGG | -0.0833
AATTCCTA | 0.155
CCTCCCCC | -0.317
CTGAGCGC | -0.0319
CAATTGCG | 0.225
GCCGAAAC | -0.0745
ACAATGAC | -0.102
CATTAATA | 0.186
GCACCAGC | -0.0944
CACTAGGA | 0.129
AGGCCGAG | -0.362
GAGACGAC | -0.273
CCGTCGTA | -0.0115
GAGAATCA | 0.109
CCATTAGG | -0.236
CGTGCCAC | -0.181
TCGATACA | 0.126
ATACCGAG | 0.045
CCCCGAGG | -0.203
CGCGAACA | -0.00689

Sequence | binding signal [E-score]
CTACTACC | 0.363
CAGCTCGA | -0.0924
AGTTATAA | 0.296
CAATACAC | 0.161
AGAAGGGG | -0.287
ACGCACCT | -0.133
AGCACCCG | -0.304
AAATGTGG | 0.124
TCAAGAGA | 0.0592
AAGAGCTC | -0.153
GACTTGGC | -0.0709
AGTACTAT | 0.367
ATCTTTAA | 0.045
CAGTAAAG | -0.0701
CTTGATTA | -0.0437
CATTACAG | -0.00725
CATGGAGA | 0.0656
CTAAATGC | -0.0315
CCGGATAA | 0.0427
